Laboratory results: publication PMC4336329 (PLoS ONE, 2015)
The whole screen tested about 310,000 compounds, of which about 2,200 (0.71%) showed an effect of 50% or more. Effects have a minus sign here. This is one part of the list.

biological target: human ether-à-go-go-related gene (hERG) potassium channel (human, UniProt Q12809); assay: primary screen, population patch clamp on CHO cells stably expressing hERG
Sequence (Q12809 whole entry, looked up): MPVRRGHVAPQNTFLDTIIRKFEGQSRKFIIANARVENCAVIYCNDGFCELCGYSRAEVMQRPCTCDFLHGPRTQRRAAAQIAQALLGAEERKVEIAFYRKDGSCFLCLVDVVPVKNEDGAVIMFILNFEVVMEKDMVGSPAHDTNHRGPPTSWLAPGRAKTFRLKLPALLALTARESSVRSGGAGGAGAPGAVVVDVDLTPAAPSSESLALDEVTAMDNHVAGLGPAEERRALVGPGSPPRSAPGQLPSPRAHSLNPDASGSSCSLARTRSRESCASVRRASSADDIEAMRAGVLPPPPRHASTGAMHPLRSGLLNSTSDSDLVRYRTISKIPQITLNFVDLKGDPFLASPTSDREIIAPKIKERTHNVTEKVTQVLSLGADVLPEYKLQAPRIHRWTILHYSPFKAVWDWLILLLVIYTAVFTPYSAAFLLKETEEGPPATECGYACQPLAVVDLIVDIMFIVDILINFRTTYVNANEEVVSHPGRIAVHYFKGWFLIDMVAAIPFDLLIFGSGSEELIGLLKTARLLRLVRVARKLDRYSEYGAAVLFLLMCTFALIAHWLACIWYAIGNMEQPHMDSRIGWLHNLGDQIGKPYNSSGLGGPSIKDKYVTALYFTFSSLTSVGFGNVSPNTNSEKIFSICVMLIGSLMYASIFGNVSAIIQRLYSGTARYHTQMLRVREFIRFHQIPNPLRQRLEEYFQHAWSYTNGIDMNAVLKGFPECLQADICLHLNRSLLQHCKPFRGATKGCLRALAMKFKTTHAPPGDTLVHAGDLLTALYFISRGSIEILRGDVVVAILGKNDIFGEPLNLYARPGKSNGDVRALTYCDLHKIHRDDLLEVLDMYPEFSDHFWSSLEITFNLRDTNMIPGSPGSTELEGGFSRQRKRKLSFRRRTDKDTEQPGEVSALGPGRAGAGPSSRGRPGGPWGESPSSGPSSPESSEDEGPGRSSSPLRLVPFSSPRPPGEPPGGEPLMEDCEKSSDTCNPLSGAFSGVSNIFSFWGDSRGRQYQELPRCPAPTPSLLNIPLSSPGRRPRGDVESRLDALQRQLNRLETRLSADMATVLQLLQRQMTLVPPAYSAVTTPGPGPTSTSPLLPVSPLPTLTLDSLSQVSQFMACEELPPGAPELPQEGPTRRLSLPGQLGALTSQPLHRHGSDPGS

Row | SMILES | hERG current change (%, negative = inhibition) at 1uM
1 | COc1cc(/C=N/NC(=O)c2cc(C)oc2C)ccc1OCc1ccccc1 | 7.16%
2 | CC(=O)c1cccc(NS(=O)(=O)c2ccc(N/C=C\C(=O)c3ccc(C)cc3)cc2)c1 | 12.1%
3 | CN(C)S(=O)(=O)c1cccc(C(=O)Nc2ccc(Cl)cn2)c1 | 2.97%
4 | COc1ccc(NC(=O)C(=O)Nc2cccc3ccccc23)c(OC)c1 | 4.97%
5 | C#CCOCCOCCOCCNc1nc(N2CCN(C(=O)[C@H]([C@@H](C)CC)n3cc([C@@H](N)Cc4ccc(O)cc4)nn3)CC2)nc(N2CCN(C(=O)[C@H](CCCCN)n3cc([C@@H](N)CO)nn3)CC2)n1.Cl | 13.7%
6 | Cc1cc(NC(=O)CSC2=Nc3ccccc3C3=NC(Cc4ccccc4)C(=O)N23)n[nH]1 (stereo not shown) | 1.35%
7 | CC(C)(C)NC(=O)COC(=O)C1c2ccccc2Oc2ccccc21 | 8.62%
8 | Cc1c(Cl)cccc1NC(=O)C1CCN(c2cnccn2)CC1 | -0.949%
9 | COc1ccc(C(=O)c2c3ccccc3[n+]([O-])n2Cc2ccc(C(N)=O)cc2)cc1 | 11.2%
10 | CC#CCCCC(=O)Nc1cc(OC)nc(OC)n1 | -2.41%
11 | Cc1c(Cl)cccc1NC(=S)NCc1ccco1 | -0.475%
12 | CN(c1ccccc1C(=O)Nc1cccc(Cl)c1Cl)S(C)(=O)=O | 13.9%
13 | COc1ccc(S(=O)(=O)NCCOc2ccccc2)cc1OC | 3.77%
14 | CC(=O)N/C(=C/c1ccccc1)c1ccccc1 | 12.8%
15 | Cc1cc(C)cc(NC(=O)CCC(=O)Nc2nnc(C(C)C)s2)c1 | 14.3%
16 | Cc1ccc(-n2c([C@@H]3C[C@H]3c3ccccc3)n[nH]c2=S)cc1 | 18.6%
17 | O=C(COC(=O)C1CCN(S(=O)(=O)c2cccs2)CC1)NCc1ccc(F)cc1 | -4.52%
18 | O=C(CN1CCOCC1)NNc1c2ccccc2nc2ccccc12 | 8.09%
19 | C=CCc1cccc(/C=C/c2cc(=O)c3ccccc3[nH]2)c1O | 11.3%
20 | CCCc1nnc(NC(=O)c2c(O)c3cccc4c3n(c2=O)CCC4)s1 | -9.4%
21 | CCOC(=O)c1ccc(NC(=O)C(=O)NCCc2ccc(OC)cc2)cc1 | 11.6%
22 | Cc1ccc(Cl)cc1NC(=O)c1ccc(NC(=O)CCC(=O)O)cc1 | 4.85%
23 | COC(=O)c1sc(NC(=O)c2c(C)noc2C)nc1C | -17.3%
24 | COc1ccc(NC(=O)CSc2nc3ccccc3c(=O)n2Cc2cccs2)c(OC)c1 | 4.67%
25 | O=c1[nH]c2cc3c(cc2cc1CN(CC1CCCO1)S(=O)(=O)c1ccccc1)OCCO3 (stereo not shown) | -1.43%
26 | Cc1ccc(C)c(NC(=O)CN(C)C(=O)Cc2ccc(Cl)cc2Cl)c1 | 15.6%
27 | CSc1ccccc1NC(=O)c1ccc(Cl)s1 | 0.228%
28 | Cc1ccc(NC(=O)Nc2cccc(F)c2)nc1 | 24%

Row | SMILES | hERG current change (%, negative = inhibition) at 1uM
29 | CC(=O)c1c(-c2ccccc2)c2cc(Cl)ccc2[nH]c1=O | 13.7%
30 | CCCCOC(=O)C1=C(N)N2C(=O)C(C)SC2=C(C(=O)OCC)C1c1ccc(O)c(OC)c1 (stereo not shown) | 8.97%
31 | O=C(O)c1cc(-c2ccccc2Cl)n(-c2ccccc2)n1 | 11.4%
32 | CCc1cc2ccc(C)cc2nc1SCC(=O)Nc1cc(OC)c(OC)cc1C(=O)O | 8.8%
33 | CCOC(=O)Nc1ccc(N2CCOCC2)c(S(=O)(=O)N2CCOCC2)c1 | -4.79%
34 | COC(=O)[C@@]12CCCCN1[C@H](c1ccc(-c3cccc(Cl)c3)cc1)[C@H]1C(=O)N(C)C(=O)[C@H]12.O=C(O)C(F)(F)F | 8.53%
35 | COc1ccccc1-n1nnnc1S(=O)(=O)Cc1ccc(Cl)cc1 | 8.96%
36 | C=CCN1C(=O)C(CC(=O)Nc2ccc(C)cc2)SC1=Nc1c(C)n(C)n(-c2ccccc2)c1=O (stereo not shown) | 9.99%
37 | CCn1ncc(CN2CCCC(CNC(=O)c3ccc(F)cc3)C2)c1C (stereo not shown) | 1.73%
38 | COc1ccc(CNC(=O)c2ccc(NC(=O)C3=CSCCO3)cc2)cc1 | 17.6%
39 | CCCn1c(N)c(N(CCOC)C(=O)/C=C/c2ccc(C(=O)OC)cc2)c(=O)[nH]c1=O | 3.86%
40 | CCCC(=O)N(Cc1cccnc1)c1nc2c(OC)ccc(Cl)c2s1 | 5.79%
41 | Cc1cc(C)c(NS(=O)(=O)c2ccc3c(c2)NC(=O)CCS3)c(C)c1 | 7.9%
42 | CN(CC#CCC(c1ccccc1)c1ccccc1)C(C)(C)C.Cl | -56.4%
43 | Cc1cc(=O)[nH]c(SCC(=O)Nc2ccc(S(=O)(=O)N3CCCCC3)cc2)n1 | -0.575%
44 | CCOC(=O)c1c(C)n(C)c2ccc(O)c(CN(CC)CC)c12.Cl | 2.09%
45 | C=CCn1c(SCC(=O)NC)nnc1C12CC3CC(CC(C3)C1)C2 | 8.97%
46 | NS(=O)(=O)c1cccnc1Nc1c(Cl)cccc1Cl | 1.55%
47 | Cc1nnc(Cn2cnc3c2c(=O)n(C)c(=O)n3C)o1 | 18.7%
48 | N#C/C(=C\c1cccs1)Sc1nc2ccccc2s1 | 12.7%
49 | CSCCC(NC(=O)COc1ccccc1)C(=O)N1CCN(c2ccccc2O)CC1 (stereo not shown) | -2.64%
50 | Cc1occc1C(=O)Nc1nnc(C2CCCCC2)s1 | -3.72%
51 | CCOC(=O)N1CCN(c2cc3nccnc3cc2F)CC1 | 7.44%
52 | O=C(Nc1ccc(Cl)cc1C(F)(F)F)c1ccccc1Cl | 12.9%
53 | c1ccc(-c2nnc(CSc3ccc4c(c3)OCCO4)o2)cc1 | 1.69%
54 | CCCCc1n[nH]c2c1C(=O)CC(C)(C)C2 | 6.29%
55 | CC(C)CC(=O)NS(=O)(=O)c1ccc(N)cc1 | 13.6%
